# The antibiotic and cytotoxicity screens of Wong et al. (2023)
# The other results are listed elsewhere or left out.
# What was measured:
# HSkMC = human skeletal muscle cells; test: cytotoxicity call (relative viability < 0.9); details: 10 µM
# HepG2 = test: cytotoxicity call (relative viability < 0.9); details: 10 µM
# S. aureus RN4220 = test: growth inhibition call (relative growth <= 0.2); details: 50 µM
Structure (SMILES),cytotoxicity call (HSkMC),cytotoxicity call (HepG2),growth inhibition call (S. aureus RN4220)
Cc1noc(C)c1S(=O)(=O)Nc1cccc2c1O[C@@H](CN(C)S(=O)(=O)c1cccs1)[C@@H](C)CN([C@H](C)CO)C2=O,inactive,inactive,inactive
C[C@H](CO)N1C[C@H](C)[C@H](CN(C)C(=O)Nc2ccc3c(c2)OCO3)Oc2ccc(NS(=O)(=O)c3cn(C)cn3)cc2C1=O,inactive,inactive,inactive
COc1ccc(C#Cc2cnc3c(c2)C(=O)N([C@H](C)CO)C[C@H](C)[C@H](CN(C)Cc2ccncc2)O3)cc1OC,inactive,inactive,inactive
C[C@@H]1CN([C@H](C)CO)C(=O)c2c(c3ccccc3n2C)-c2ccccc2CO[C@@H]1CN(C)Cc1ccc(Cl)c(Cl)c1,inactive,inactive,inactive
COc1ccc(NC(=O)Nc2ccc3c(c2)C(=O)N([C@H](C)CO)C[C@@H](C)[C@H](CN(C)CC2CCCCC2)OCCCC[C@@H](C)O3)cc1,inactive,active,inactive
O=C(C[C@@H]1CC[C@@H]2[C@H](COC[C@H](O)CN2S(=O)(=O)c2ccc(Cl)cc2)O1)NCCN1CCCC1,inactive,inactive,inactive
CCOC(=O)CC(=O)N1CCSC1COc1ccccc1OC (centres undefined),inactive,active,inactive
C[C@H]1CN([C@@H](C)CO)C(=O)Cc2cc(NS(C)(=O)=O)ccc2O[C@@H]1CN(C)S(C)(=O)=O,inactive,inactive,inactive
Cc1nccn1-c1cccc(CN)c1,inactive,inactive,inactive
COC(=O)C[C@@H]1CC[C@H]2[C@@H](COC[C@@H](O)CN2S(=O)(=O)c2ccccc2C)O1,inactive,inactive,inactive
C[C@@H]1CN([C@@H](C)CO)C(=O)c2cc(NC(=O)C3CCCCC3)ccc2O[C@@H](C)CCCCO[C@@H]1CN(C)Cc1ccncc1,inactive,inactive,inactive
CC(NCCC(c1ccccc1)c1ccccc1)c1ccccc1.Cl (centres undefined),inactive,active,inactive
C[C@@H]1CCCCO[C@@H](CN(C)C(=O)c2ccccc2)[C@H](C)CN([C@@H](C)CO)C(=O)c2cc(NC(=O)Nc3cccc4ccccc34)ccc2O1,inactive,inactive,inactive
C[C@H]1CCCCO[C@H](CN(C)S(C)(=O)=O)[C@@H](C)CN([C@@H](C)CO)C(=O)c2cc(NS(=O)(=O)c3ccccc3)ccc2O1,inactive,inactive,inactive
O=C(C[C@H]1CC[C@@H]2[C@H](COC[C@@H](O)CN2CC2CCOCC2)O1)N1CCOCC1,inactive,inactive,inactive
CCCCCCCCCCCCCCCC(=O)OCC(O)CO (centres undefined),inactive,inactive,inactive
Cl.N=C(N)NC(=N)N1CCOCC1,inactive,inactive,inactive
Cc1noc(C)c1S(=O)(=O)Nc1ccc2c(c1)C(=O)N([C@H](C)CO)C[C@@H](C)[C@H](CN(C)Cc1ccccc1)OCCCC[C@@H](C)O2,inactive,inactive,inactive
COc1ccc(S(=O)(=O)N(C)C[C@@H]2Oc3ccc(NS(=O)(=O)c4ccc(C)cc4)cc3CC(=O)N([C@@H](C)CO)C[C@@H]2C)cc1,inactive,inactive,inactive
Cc1noc(C)c1NC(=O)Nc1ccc2c(c1)C(=O)N([C@H](C)CO)C[C@@H](C)[C@@H](CN(C)S(=O)(=O)c1c(C)noc1C)O2,inactive,inactive,inactive
C[C@@H]1CN([C@@H](C)CO)C(=O)c2cc(NC(=O)NC3CCCCC3)ccc2O[C@@H](C)CCCCO[C@H]1CN(C)Cc1ccc2c(c1)OCO2,inactive,inactive,inactive
COc1ccccc1NC(=O)N(C)C[C@@H]1Oc2ncc(C#CCN(C)C)cc2C(=O)N([C@@H](C)CO)C[C@H]1C,inactive,active,inactive
CC(=O)NCCCC[C@@H]1NC(=O)[C@H]2C[C@@H](C(=O)NCCCCCCN(C)C)[C@@H](c3cccc(OCCO)c3)N2C1=O,inactive,inactive,inactive
C[C@@H]1CN([C@H](C)CO)C(=O)c2cccc(NS(=O)(=O)c3ccc(F)cc3)c2O[C@H]1CN(C)Cc1ccc(Oc2ccccc2)cc1,inactive,inactive,inactive
C[C@@H]1CCCCO[C@@H](CN(C)C(=O)c2ccccc2)[C@@H](C)CN([C@H](C)CO)C(=O)c2cc(NC(=O)Nc3ccccc3)ccc2O1,inactive,inactive,inactive
C[C@@H]1CCCCO[C@@H](CN(C)Cc2ccc(C(F)(F)F)cc2)[C@@H](C)CN([C@@H](C)CO)C(=O)c2cc(NC(=O)c3ccccc3)ccc2O1,inactive,inactive,inactive
N=C(N)NCCC[C@@H](NC(=O)CC1(CC(=O)N2CCN([C@H]3c4ccccc4NC(=O)c4ccccc43)CC2)CCCC1)C(=O)NCCn1c(=O)n(-c2ccccc2)n(-c2ccccc2)c1=O,inactive,inactive,active
C[C@H](CO)N1C[C@H](C)[C@H](CN(C)C(=O)Nc2ccc3c(c2)OCO3)Oc2c(NS(=O)(=O)c3cn(C)cn3)cccc2C1=O,inactive,inactive,inactive
